Screen size: about 48,000 compounds; about 450 (0.94%) were called active. Another 19% or so got no clear call; they are omitted. The call rests on the fitted dose curve; in most records, active means well fitted inhibition curve with a large enough effect; inconclusive means small, poorly fitted or top-dose-only effect; inactive means no such curve, though single readings can be large or run the other way. Some of the results follow.
Test: Primary qHTS for Identification of Small Molecule Inhibitors of Huntingtin Promoter Activity; further: nearly all actives have a fitted effect of over 50% in size
Conditions: HEK293 HTT promoter firefly luciferase reporter (activity 0% = vehicle and -100% = no light), 24 h; series mostly up to 57.5 µM; activity change, negative = inhibition: at the top concentration
In short: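 Firefly luciferase signal from promoter-reporter HEK293 cells was scaled between vehicle (0%) and zero RLU (-100%). Compounds were tested at final concentrations of up to 57.5 uM over 24 h at 37 degrees C. PTC124 at 50 uM final served as control inhibitor.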

Activity change, negative = inhibition, inactive:
Cc1ccc(C)c(Cn2nnc(C(=O)NCc3ccc(Cl)cc3Cl)c2N)c1 -7.16%
C=CCc1cccc2cc(C(=O)Nc3cccc(Cl)c3)c(=O)oc12 17.9%
Cc1cccc(C(=O)NCCc2sc(-c3ccccc3)nc2C)c1 -19.2%
CCOC(=O)c1sc2ccccc2c1S(=O)(=O)Nc1cccc(C(F)(F)F)c1 0%
Cc1coc2c1c(C)cc1oc(=O)cc(C)c12 -0.475%
Cc1oc(-c2cccc(Cl)c2)nc1CN1CCCC(C(=O)NCc2ccc(F)cc2)C1 (configuration not stated) 0.958%
COc1ccc(-c2nnc(SCC(=O)Oc3c(C)cccc3C)o2)cc1OC 2.15%
CCCCN(C)C(=O)C(Cc1ccccc1)NS(=O)(=O)c1ccc2c(c1)c(=O)n(C)c(=O)n2C (configuration not stated) -6.76%
COC(=O)c1cc(NC(=O)Cn2nc(C)n3cccc3c2=O)cc(C(=O)OC)c1 11.6%
Cc1ccc(-c2c(C(=O)NCc3ccccc3)oc(=O)c3ccccc23)cc1 -12.1%
CCOC(=O)C1=C(CS(=O)(=O)c2ccc(Br)cc2)NC(=O)NC1c1ccccc1 (configuration not stated) -19.2%
CCc1cccc(C)c1NC(=O)c1cc(C)nc2c1c(C)nn2-c1cccc(Cl)c1C -8.71%
Cc1cc(OC(=O)c2cc(-c3ccc4c(c3)OCCO4)on2)ccc1Cl -1.22%
COc1ccc2c(c1)-c1nc(NC(=O)c3cc(Cl)ccc3OC)sc1CC2 -4.7%
COc1ccccc1CNC(=O)CCn1c(=O)c2ccccc2n(CC(=O)Nc2ccc(C)cc2C)c1=O -4.74%
CN1c2ccccc2-c2nc(SCC(=O)Nc3ccccc3C(F)(F)F)ncc2S1(=O)=O -33.8%
Cc1ccc(CSc2nc3ccc(NC(=O)C(C)C)cc3s2)cc1 -15.3%
CCN(Cc1ccccc1)C(=O)Cn1c(=O)n(Cc2ccccc2)c(=O)c2c1c1cc(OC)ccc1n2C -2.75%
COc1ccc(C(CC(=O)Nc2ccc(C)c(C)c2)N2Cc3ccccc3C2=O)cc1OC (configuration not stated) -22.7%
CC(C)c1ccc(S(=O)(=O)c2nnn3c2nc(NC2CCCC2)c2sccc23)cc1 -8%
Cc1ccc2c(=O)cc(CSc3ccccc3)[nH]c2c1C 17.7%
Cc1nc(CC(=O)Nc2cccc(C)c2C)cs1 -2.83%
COc1ccc(C(=O)NCc2ccc3c(c2)CCN3C(=O)c2ccncc2)cc1 -28.1%
CCCCCCNC(=O)c1c[nH]c2ccc(S(=O)(=O)N(C)c3ccc(C(C)C)cc3)cc2c1=O -0.856%
N#C/C(=C/c1ccccc1Cl)c1nc2ccccc2c(=O)[nH]1 -2.33%
Cc1ccc(Cl)cc1N(C)C(=O)c1cc2c(Cl)nc3ccccc3c2s1 3.43%
O=C(C1CCC(Cn2c(=O)c3sccc3n(Cc3cccc(F)c3)c2=O)CC1)N1CCOCC1 (configuration not stated) -17.5%
Cc1cc2nn(-c3ccc(F)cc3)nc2cc1NC(=O)c1cccc([N+](=O)[O-])c1C 30.3%
COc1cccc(OC(=O)CSc2nnc(-c3cccs3)o2)c1 1.65%
CC(=O)Nc1ccc(Nc2nc3c(S(=O)(=O)c4cc(C)ccc4C)nnn3c3ccsc23)cc1 -2.63%
Cc1[nH]cnc1CN1CCc2c(c3ccccc3n2C)C1=O -4.6%
CC1(C)OC[C@@H](COC(=O)CCc2ccc(OC[C@@H](O)CNCCNC(=O)N3CCOCC3)cc2)O1 9.79%
COc1ccccc1NC(=O)CSc1ccc(-c2ccccn2)nn1 -10.9%
CCn1ccc2cc(S(=O)(=O)N3CCCN(C(=O)Nc4cccc(SC)c4)CC3)ccc21 -28.9%
CCCNC(=O)C1CCN(C(=O)N2CC(C)Oc3ccccc32)CC1 (configuration not stated) 3.08%
Cc1ccc(CNC(=O)C2CCC(CNS(=O)(=O)c3ccc(C)cc3)CC2)cc1 (configuration not stated) -5.94%
CCCCN(C)S(=O)(=O)c1ccc(NC2=NS(=O)(=O)c3ccccc32)cc1 -21.5%
Cc1ccc(-n2nc3c(N4CCC(C(=O)NC5CCCCC5)CC4)nnc(C)c3c2C)cc1 -16%
Cc1cc2oc(C(=O)Nc3ccc(S(=O)(=O)N4CCC(C)CC4)cc3)cc(=O)c2cc1C -6.24%
COc1ccc(-n2ncc(C(=O)N3CCN(C(=O)c4ccco4)CC3)c2C2CCN(C(=O)OC(C)(C)C)CC2)cc1 17.1%
COc1ccc(-c2ccc(CNCCCSc3nnnn3C)o2)cc1Cl -15.8%
COc1ccc(NC(=O)c2c(NCc3ccc(OC)c(OC)c3OC)sc3c2CCC3)c(OC)c1 -16%
Cc1ccc(N(C)S(=O)(=O)c2ccc(-c3coc(C)n3)cc2)cc1 -12.5%
Cc1cccc(-c2noc(-c3ccc(NCc4ccccc4)c([N+](=O)[O-])c3)n2)c1 13%
O=C(O)CCc1ccc(NCc2cccc(Oc3ccccc3)c2)cc1 -7.89%
Cc1ccc(NC(=O)CN2C(=O)COc3ccc(S(=O)(=O)N4CCOCC4)cc32)cc1N(C)C -4.15%
CC1=C(C(N)=O)C(c2cccc(Br)c2)n2nc(SCc3ccccc3Cl)nc2N1 (configuration not stated) -5.52%
Cc1cc(C)c2oc(-c3ccc(NC(=O)COc4ccccc4C)cc3)nc2c1 39.9%
Fc1ccc(CSc2nncn3c2cc2occc23)c(Cl)c1 -6.7%
COc1cc(C2C(C(=O)Nc3ccc(Cl)cc3)=C(C)Nc3nc(SC)nn32)cc(OC)c1OC (configuration not stated) -7.85%
Cc1nn(CC(=O)NCCc2ccccc2)c(=O)c2nn(-c3ccccc3)c(C)c12 -0.547%
COc1cc(CN(C(=O)Nc2cccc(Cl)c2)c2ccccn2)cc(OC)c1OC -2.2%
COC(=O)c1nnn(CC(=O)Nc2c(C)cccc2C)c1N -13.9%
Cc1cc2nc3c(=O)[nH]c(=O)nc-3n(C[C@H](O)[C@H](O)[C@H](O)CO)c2cc1C 2.91% [at 25.2 µM]
Cc1ccc(C(=O)NCC(c2cccs2)S(=O)(=O)c2ccccc2)cc1C (configuration not stated) -18.7%
CC(C)Nc1nc2c(S(=O)(=O)c3cccc(Cl)c3)nnn2c2ccsc12 0.407%
CC(C)CCNC(=O)c1ccc2nc(CCc3ccccc3)oc2c1 29.5%
CC(C)c1ccc(S(=O)(=O)N2CCN(CC(=O)Nc3ccccc3C(F)(F)F)CC2)cc1 -0.0923%
CCOC(=O)c1c(C)oc2nc(C)nc(NCCc3ccc(OC)c(OC)c3)c12 0.986%
CCCCC(CC)CNC(=O)CCCCn1c(=O)[nH]c2ccsc2c1=O (configuration not stated) -6.95%
COC(=O)c1sc(N2C(=O)c3oc4ccc(C)cc4c(=O)c3C2c2ccc(O)c(OC)c2)nc1C (configuration not stated) -8.11%
COc1ccc(CCNc2nc(SCc3ccccc3F)nc3ccccc23)cc1OC -6.77%
